Results published in PMC9911399, “Two distinct binding modes provide the RNA-binding protein RbFox with extraordinary sequence specificity”.
Substitutions are numbered along the chain they refer to; changes in the protein carry UniProt numbers. The list shows a part of the results.

T1: RBFOX1 RRM (Homo sapiens, UniProt Q9NWB1 109-208)
T1 sequence: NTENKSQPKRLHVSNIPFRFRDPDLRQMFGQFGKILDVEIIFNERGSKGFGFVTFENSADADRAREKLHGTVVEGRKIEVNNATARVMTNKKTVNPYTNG

B1: AUCAAGA (DNA:RNA)
RNA: GGGAGACCGGAAUUCAGAUUGUCCAUCAAGAUUAAAUCCCGUCGUAGCCACCA
DNA 1: CAATCTGAATTCCGGTCTCCC
DNA 2: TGGTGGCTACGACGGGATT
B2: AAAAGUG (DNA:RNA)
RNA: B1 RNA with U26A, C27A, A29G, G30U, A31G
DNA 1: CAATCTGAATTCCGGTCTCCC
DNA 2: TGGTGGCTACGACGGGATT
B3: UGUCGGG (DNA:RNA)
RNA: B1 RNA with A25U, U26G, C27U, A28C, A29G, A31G
DNA 1: CAATCTGAATTCCGGTCTCCC
DNA 2: TGGTGGCTACGACGGGATT
B4: AGUAAGC (DNA:RNA)
RNA: B1 RNA with U26G, C27U, A31C
DNA 1: CAATCTGAATTCCGGTCTCCC
DNA 2: TGGTGGCTACGACGGGATT
B5: ACGGGCG (DNA:RNA)
RNA: B1 RNA with U26C, C27G, A28G, A29G, G30C, A31G
DNA 1: CAATCTGAATTCCGGTCTCCC
DNA 2: TGGTGGCTACGACGGGATT
B6: AACGUCC (DNA:RNA)
RNA: B1 RNA with U26A, A28G, A29U, G30C, A31C
DNA 1: CAATCTGAATTCCGGTCTCCC
DNA 2: TGGTGGCTACGACGGGATT
B7: CUGACUU (DNA:RNA)
RNA: B1 RNA with A25C, C27G, A29C, G30U, A31U
DNA 1: CAATCTGAATTCCGGTCTCCC
DNA 2: TGGTGGCTACGACGGGATT
B8: UGUUGGU (DNA:RNA)
RNA: B1 RNA with A25U, U26G, C27U, A28U, A29G, A31U
DNA 1: CAATCTGAATTCCGGTCTCCC
DNA 2: TGGTGGCTACGACGGGATT
B9: ACCGCAG (DNA:RNA)
RNA: B1 RNA with U26C, A28G, A29C, G30A, A31G
DNA 1: CAATCTGAATTCCGGTCTCCC
DNA 2: TGGTGGCTACGACGGGATT
B10: GUCUGGU (DNA:RNA)
RNA: B1 RNA with A25G, A28U, A29G, A31U
DNA 1: CAATCTGAATTCCGGTCTCCC
DNA 2: TGGTGGCTACGACGGGATT
B11: GCAUCUC (DNA:RNA)
RNA: GGGAGACCGGAAUUCAGAUUGUCCGCAUCUCUUAAAUCCCGUCGUAGCCACCA
DNA 1: CAATCTGAATTCCGGTCTCCC
DNA 2: TGGTGGCTACGACGGGATT
B12: UUGCAGG (DNA:RNA)
RNA: B1 RNA with A25U, C27G, A28C, A31G
DNA 1: CAATCTGAATTCCGGTCTCCC
DNA 2: TGGTGGCTACGACGGGATT
B13: GGGCCUA (DNA:RNA)
RNA: B11 RNA with C26G, A27G, U28C, C31A
DNA 1: CAATCTGAATTCCGGTCTCCC
DNA 2: TGGTGGCTACGACGGGATT
B14: CACCACC (DNA:RNA)
RNA: B1 RNA with A25C, U26A, A28C, G30C, A31C
DNA 1: CAATCTGAATTCCGGTCTCCC
DNA 2: TGGTGGCTACGACGGGATT
B15: CCAGUCA (DNA:RNA)
RNA: B11 RNA with G25C, U28G, C29U, U30C, C31A
DNA 1: CAATCTGAATTCCGGTCTCCC
DNA 2: TGGTGGCTACGACGGGATT
B16: CCGGAUU (DNA:RNA)
RNA: B11 RNA with G25C, A27G, U28G, C29A, C31U
DNA 1: CAATCTGAATTCCGGTCTCCC
DNA 2: TGGTGGCTACGACGGGATT
B17: CCUCUCC (DNA:RNA)
RNA: B11 RNA with G25C, A27U, U28C, C29U, U30C
DNA 1: CAATCTGAATTCCGGTCTCCC
DNA 2: TGGTGGCTACGACGGGATT
B18: UAGCACU (DNA:RNA)
RNA: B1 RNA with A25U, U26A, C27G, A28C, G30C, A31U
DNA 1: CAATCTGAATTCCGGTCTCCC
DNA 2: TGGTGGCTACGACGGGATT
B19: CACACAU (DNA:RNA)
RNA: B1 RNA with A25C, U26A, A29C, G30A, A31U
DNA 1: CAATCTGAATTCCGGTCTCCC
DNA 2: TGGTGGCTACGACGGGATT
B20: CGGCACC (DNA:RNA)
RNA: B1 RNA with A25C, U26G, C27G, A28C, G30C, A31C
DNA 1: CAATCTGAATTCCGGTCTCCC
DNA 2: TGGTGGCTACGACGGGATT

target: T1, RBFOX1 RRM; assay: EMSA; HiTS-Eq, 1 nM pool, 10 min; buffer printed only for the single-RNA assays: 10 mM Tris pH 7.5, 150 mM NaCl, 3.4 mM EDTA, 0.001% NP-40, 30 C; conditions: tags: His6 N-terminal (pET28a); label: 5' 32P
Summary of the method: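 Purified RbFox RRM (wild type or mutant) was equilibrated for 10 min in 50 µL with 1 nM of a 5′-radiolabelled pool of RNA with 7 randomized nucleotides, its flanks annealed to DNA oligonucleotides, across increasing protein concentrations. Free RNA was separated by 8% native PAGE, excised, reverse-transcribed, PCR-barcoded and sequenced on an Illumina HiSeq 2500. Relative association constants came from read-count changes of each variant against the control reaction, normalised to the cognate motif.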

Binder | binding signal
B1 | 0.00585 KA relative to UGCAUGU
B2 | 0.00728 KA relative to UGCAUGU
B3 | 0.0123 KA relative to UGCAUGU
B4 | 0.00802 KA relative to UGCAUGU
B5 | 0.0129 KA relative to UGCAUGU
B6 | 0.00654 KA relative to UGCAUGU
B7 | 0.0131 KA relative to UGCAUGU
B8 | 0.0304 KA relative to UGCAUGU
B9 | 0.00369 KA relative to UGCAUGU
B10 | 0.0182 KA relative to UGCAUGU
B11 | 0.0161 KA relative to UGCAUGU
B12 | 0.0144 KA relative to UGCAUGU
B13 | 0.0089 KA relative to UGCAUGU
B14 | 0.00141 KA relative to UGCAUGU
B15 | 0.00658 KA relative to UGCAUGU
B16 | 0.00966 KA relative to UGCAUGU
B17 | 0.00489 KA relative to UGCAUGU
B18 | 0.00975 KA relative to UGCAUGU
B19 | 0.000433 KA relative to UGCAUGU
B20 | 0.0105 KA relative to UGCAUGU
